In PubChem BioAssay AID1508624 (National Center for Advancing Translational Sciences (NCATS), 2021):
The campaign covered roughly 48,000 compounds. About 120 (0.25%) were called active. Not shown: some 4% with an inconclusive outcome. Calls come from the whole dose curve; as a rule, active = well fitted activation curve with a large enough effect; inconclusive = small, poorly fitted or top-dose-only effect, or another doubt; inactive = no such curve, though single readings can be large or run the other way. Some of the results follow.

Test: Primary qHTS for Identification of Small Molecule Activators of Huntingtin-Antisense Promoter Activity; note: nearly all actives have a fitted effect of over 55% in size
Conditions: HEK293 HTT-AS promoter firefly luciferase reporter, 24 h; series mostly up to 57.5 µM; activity change, positive = activation: at the top concentration
Outline: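 Firefly luciferase readout (Dual-Glo, 10 min RT) after 24 h, 37 °C compound exposure (final up to 57.5 uM) of HEK293 reporter cells cultured 24 h beforehand; PTC124 at 50 uM final as control inhibitor; activity scaled vehicle 0%, zero RLU -100%.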
Potency is the fitted concentration of half-maximal effect.

Row | Structure (SMILES) | activity change, positive = activation | Potency
1 | CCCSCCCNC(=O)CN1C(=O)COc2ccc(S(=O)(=O)N3CCCCCC3)cc21 | inactive: -30.6% | 
2 | Cc1cc(NC(=O)CN(c2cccc(C)c2C)S(=O)(=O)c2ccccc2)ccc1Br | inactive: -38.8% | 
3 | CCCOc1ccc(CNC(=O)C2CCN(c3nn4c(=O)cc(C)nc4s3)CC2)cc1 | inactive: -11.2% | 
4 | COc1ccc(CCC(=O)NCc2ccc3c(c2)CCN3C(=O)c2cccc(C)c2)cc1 | inactive: -69.7% | 
5 | CC(NC(=O)c1cc2sccc2n1Cc1ccc(F)cc1)c1ccccc1 (stereo not drawn) | inactive: -20.6% | 
6 | COc1ccc(C(=O)Nc2ccc(-c3cc(C(F)(F)F)nn3-c3ccccc3)cc2)cc1OC | inactive: -33.5% | 
7 | CCc1cccc(C)c1NS(=O)(=O)c1ccc(-n2cccn2)cc1 | inactive: -39.1% | 
8 | CC(=O)N1CCCc2cc(S(=O)(=O)NCc3ccc(OC(C)C)cc3)ccc21 | inactive: -20.1% | 
9 | COc1ccc(-c2nn(-c3ccc(F)cc3F)c3c2cnc2ccc(F)cc23)cc1 | inactive: -6.24% | 
10 | CCOc1ccc(-c2nonc2NC(=O)c2oc3cc(Br)ccc3c2C)cc1 | inactive: -32.7% | 
11 | COc1cc(C2CC(=O)Nc3cc4c(cc32)OCCO4)cc(OC)c1O (stereo not drawn) | inactive: -24.9% | 
12 | Nc1ccn(C2CO[C@H](CO)O2)c(=O)n1 (stereo partly drawn) | inactive: -6.68% | 
13 | O=c1[nH]c2cc(C(F)(F)F)c(N3CCOCC3)cc2n(CP(=O)(O)O)c1=O | inactive: -5.84% | 
14 | CCCCC(=O)Nc1ccc(OCc2cc(=O)n3ccc(C)cc3n2)cc1 | inactive: -5.87% | 
15 | CCCCN(CCCC)c1nc(-c2ccccc2)nc2ccccc12 | inactive: -29.9% | 
16 | COc1ccc(C(Cl)=C(c2ccc(OC)cc2)c2ccc(OC)cc2)cc1 | inactive: -5.93% | 
17 | Cc1oc(-c2cccc(Cl)c2)nc1CSCC(=O)O | inactive: -17.3% | 
18 | CCN(C(=O)c1cc2c(Cl)nc3ccc(C)cc3c2s1)c1cc(OC)ccc1OC | inactive: -12.9% | 
19 | CCC(=O)Nc1ccc(C)cc1-c1nc2ccccc2n(Cc2ccccc2)c1=O | inactive: -11.6% | 
20 | CC1(c2ccccc2)CC(C)(C)N(C(=O)c2ccccc2Cl)c2ccccc21 (stereo not drawn) | inactive: -39% | 
21 | COc1ccccc1C(=O)Nc1c(C(=O)Nc2ccc(C)cc2)oc2ccccc12 | inactive: 0.772% | 
22 | CCOC(=O)c1c(N)sc2c1CCN(Cc1ccccc1)C2 | inactive: -2.37% | 
23 | COc1ccc(NC(=O)C2CCCN2S(=O)(=O)c2ccc3c(c2)CCCC(=O)N3)cc1Cl (stereo not drawn) | inactive: -24.6% | 
24 | CCOC(=O)c1[nH]c(C)c(C(=O)NCc2ccc(F)cc2)c1C | inactive: 0% | 
25 | COc1cc(CNCCSc2nnnn2C)ccc1OCc1c(F)cccc1Cl | inactive: -15.4% | 

Row | Structure (SMILES) | activity change, positive = activation | Potency
26 | Cc1cccc(-c2nnc(SCCC(=O)O)o2)c1 | inactive: -91% | 
27 | CCOc1ccc(CCNC(=O)c2cnc3c(-c4ccccc4)c(C)nn3c2C)cc1OCC | inactive: -5.01% | 
28 | Cc1cccc(NC(=O)CN2C(=O)CCc3ccccc32)c1C | inactive: -26.5% | 
29 | COc1ccc(N2CCN(c3oc(/C=C/c4cccc(OC)c4)nc3C#N)CC2)cc1 | inactive: -6.57% | 
30 | CCc1ccc(CNC(=O)C2CCN(c3nnc(-n4c(C)ccc4C)s3)CC2)cc1 | inactive: -22.1% | 
31 | CC(C)c1ccc(OCC(=O)Nc2cc(-c3nc4ncccc4o3)ccc2Cl)cc1 | inactive: -15.3% | 
32 | O=[N+]([O-])c1ccc(C(c2sc3nc(-c4ccco4)nn3c2O)N2CCC3(CC2)OCCO3)cc1 (stereo not drawn) | inactive: -1.78% | 
33 | O=C(O)c1cccnc1Nc1cccc(C(F)(F)F)c1 | inactive | 
34 | COc1ccccc1CNC(=O)C(C)n1c(=O)cc(C(F)(F)F)c2c(C)nn(C)c21 (stereo not drawn) | inactive: -11.3% | 
35 | CCOc1ccc(CCNC(=O)c2sc3nc4n(c(=O)c3c2C)CCCC4)cc1 | inactive: -10.5% | 
36 | O=C(O)Cn1nc(N2CCN(c3ccccc3)CC2)ccc1=O | inactive: 3.09% | 
37 | Cc1sc2c(c1C)c(=O)n(Cc1ccccc1)c(=O)n2CC(=O)Nc1cccc(Cl)c1 | inactive: -15.2% | 
38 | Cc1ccccc1C(=O)NCc1ccc2c(c1)CCN2C(=O)c1ccc(F)cc1 | inactive: -10.4% | 
39 | CC1CCC(NC(=O)CCc2cn(Cc3ccc(F)cc3)c3ccccc23)CC1 (stereo not drawn) | inactive: -4.92% | 
40 | COc1ccc(NC(=O)c2nc(S(=O)(=O)Cc3ccc(C)cc3)ncc2Cl)cc1 | inactive: -28.6% | 
41 | Cc1nn2c(=O)cc(COC(=O)COc3ccccc3C)nc2s1 | inactive: 1.35% | 
42 | O=C(O)C1=CC(c2ccc(Br)cc2)n2ncnc2N1 (stereo not drawn) | inactive: 1.99% | 
43 | O=C(CCS(=O)(=O)c1nc(-c2cccs2)cc(C(F)(F)F)n1)Nc1cccc(O)c1 | inactive: -94.2% | 
44 | COc1ccccc1CNC(=O)c1cc(-c2ccccc2)n[nH]1 | inactive: -0.262% | 
45 | CCc1ccc(S(=O)(=O)c2cnc(SCC(=O)Nc3ccc(OC)cc3OC)[nH]c2=O)cc1 | inactive: 22% | 
46 | Cc1ccc2nc(NC(=O)CSc3ncc(C(=O)Nc4ccccc4)c(=O)n3C)sc2c1 | inactive: 14.3% | 
47 | CCOc1ccccc1N(CC)C(=O)c1cc2ccc3cccnc3c2[nH]1 | inactive: -2.51% | 
48 | Cn1c2ccc(F)cc2c2nnc(SCCN3CCCCC3)nc21 | inactive: -13.6% | 
49 | CC(C)NC(=O)c1sc2ncccc2c1-n1cccc1 | inactive: 7.94% | 
50 | O=C(COc1ccc(Br)cc1)Nc1cccc2cccnc12 | inactive: 16.3% | 

Row | Structure (SMILES) | activity change, positive = activation | Potency
51 | COC(=O)CN1C(=O)C(C)(C)c2cc(S(=O)(=O)Nc3ccc(C(C)C)cc3)ccc21 | inactive: -52.7% [at 11.5 µM, percent change from vehicle, -100% = no light] | 
52 | Cc1ccc(C)c(CN2C(=O)C(O)(c3c[nH]c4ccccc34)c3ccccc32)c1 (stereo not drawn) | inactive: -30.7% | 
53 | CCc1cccc(NC(=O)c2coc(=O)c3ccccc23)c1 | inactive: -11.1% | 
54 | COC(=O)c1ccc(Cl)cc1NC(=O)N1CCC(CN2CCC(C)CC2)CC1 | inactive: -14.9% | 
55 | COc1cccc(NC(=O)c2oc3ccccc3c2NC(=O)Cc2cccc(C)c2)c1 | inactive: -3.26% | 
56 | Cc1cn2c(=O)cc(COC(=O)C(C)Oc3ccccc3)nc2s1 (stereo not drawn) | inactive: -10.8% | 
57 | NC1(C(=O)N[C@@H](CCO)c2ccc(Cl)cc2)CCN(c2ncnc3[nH]ccc23)CC1 | inactive: -43.3% | 
58 | CCc1ccc(-n2nc(CO)c(C(=O)NCCCCc3ccccc3)n2)cc1 | inactive: -7.27% | 
59 | O=C(NCc1ccc(Cl)cc1)c1cc(-c2ccc(F)cc2)on1 | inactive: 0.75% | 
60 | Cc1ccccc1OCC(=O)N(Cc1ccc(C(C)C)cc1)C1CCS(=O)(=O)C1 (stereo not drawn) | inactive: -23.1% | 
61 | CCOC(=O)[C@H](CCc1ccccc1)N[C@@H](C)C(=O)N1Cc2ccccc2C[C@H]1C(=O)O | inactive: -5.99% | 
62 | CCOc1ccc(C(=O)c2cn(CC(=O)Nc3ccc(C)c(C)c3)c3ccc(OCC)cc3c2=O)cc1 | inactive: -8.74% | 
63 | COc1ccc(N2CC(NC(=O)c3ccc(S(=O)(=O)N4CCOCC4)cc3)CC2=O)cc1 (stereo not drawn) | inactive: -28.7% | 
64 | COc1ccccc1NC(=O)C1CCN(c2ncnc3c2nc2n3CCCCC2)CC1 | inactive: -16.7% | 
65 | COc1cc2c(cc1OC)C(COc1ccc(C(C)C)cc1)N(C(=O)COc1ccccc1)CC2 (stereo not drawn) | inactive: -28.8% | 
66 | CCS(=O)(=O)c1nc(S(=O)(=O)c2ccc(C)cc2)c(NCc2ccccc2Cl)s1 | inactive: -17.9% | 
67 | COc1ccc(OCC(=O)N2CCN(C(=O)c3ccc(OC)cc3)CC2)cc1 | inactive: -12.4% | 
68 | COc1ccc(CCNC(=O)CCCn2c(=O)c3cccn3c3ccc(F)cc32)cc1OC | inactive: -11.6% | 
69 | CCOc1ccc(Nc2nc(Nc3ccc(OCC)cc3)nc(N3CCOCC3)n2)cc1 | inactive: -12.5% | 
70 | Cc1cccc(C)c1NC(=O)Cn1c(=O)n(Cc2ccc3c(c2)OCO3)c(=O)c2oc3ccccc3c21 | inactive: -9.16% | 
71 | CCOc1ccc(OCC)c(NC(=O)C(NS(=O)(=O)c2cccs2)c2ccccc2)c1 (stereo not drawn) | inactive: -16.8% | 
72 | Fc1ccc(-n2ncc3c(NCCC4=CCCCC4)ncnc32)cc1 |  | active: 10 µM
73 | COc1ccc(C(=O)Nc2cc(S(=O)(=O)c3ccc(Cl)cc3)c(O)c(C)c2C)cc1 | inactive: 10.3% | 
74 | O=C(Nc1ccc(Br)cc1)C(Cc1ccccc1)NS(=O)(=O)c1cccc2nsnc12 (stereo not drawn) | inactive: -9.79% | 
75 | COc1ccccc1NC(=O)Cn1nc(-c2ccc(C)cc2)c2c(c1=O)CCCC2 | inactive: -22.3% | 

Row | Structure (SMILES) | activity change, positive = activation | Potency
76 | Cc1ccc(CNC(=O)c2c(C)oc3nc(C)nc(N4CCOCC4)c23)cc1 | inactive: -5.57% | 
77 | CCc1ccc(-n2nc3cc(C)c(NC(=O)c4cc(OC)cc(OC)c4)cc3n2)cc1 | inactive: 3.55% | 
78 | CC(C)(C)c1ccc(C(=O)NCC(c2cccs2)S(=O)(=O)c2cccs2)cc1 (stereo not drawn) | inactive: -30.7% | 
79 | COc1cc(CN2CCc3nc(N4CCN(c5ccccn5)CC4)ncc3C2)cc(OC)c1OC | inactive: -58.9% | 
80 | CCOc1ccc(S(=O)(=O)n2nc(C)c(S(=O)(=O)N3CCCCC3)c2C)cc1 | inactive: -9% | 
81 | O=C(Nc1ccc(Cl)cc1C(F)(F)F)c1cc(S(=O)(=O)N2CCOCC2)ccc1F | inactive: -22.1% | 
82 | CC(C)(C)OC(=O)N1CCC(c2c(C(=O)NCc3ccco3)cnn2-c2ccccc2Cl)CC1 | inactive: -14.9% | 
83 | Cc1nn(CCCC(=O)NCc2ccccc2)c(=O)c2cc3sccc3n12 | inactive: -8.4% | 
84 | COC(=O)c1ccccc1NS(=O)(=O)c1ccc2c(c1)CCCN2C(C)=O | inactive: -20.4% | 
85 | CC(=O)c1cc(-c2ccccc2)n(CCC(=O)NC(C)c2ccccc2)c1C (stereo not drawn) | inactive: -15.2% | 
86 | N/C(=N\N=C\c1ccc(Cl)cc1)N/N=C/c1ccc(Cl)cc1 | inactive: -10.2% | 
87 | COc1ccc(C(=O)Nc2cc3c(cc2N2CCCC2)n(C)c(=O)c(=O)n3C)cc1OC | inactive: -35.7% | 
88 | CCCC(=O)n1nc(-c2cccnc2)nc1NCc1ccc(OC)cc1 | inactive: 6.66% | 
89 | COc1cc(NC(=O)CNS(=O)(=O)c2cccs2)cc(OC)c1OC | inactive: 0.227% | 
90 | O=C(NCc1cccs1)c1ccc(CSc2nc3ccncc3n2Cc2ccccc2)cc1 | inactive: 0.355% | 
91 | CC1CCC(NC(=O)c2ccc(CS(=O)(=O)c3cccc(C(F)(F)F)c3)o2)CC1 (stereo not drawn) | inactive: -21.8% | 
92 | CCOc1ccc(S(=O)(=O)NCCc2csc3nc(-c4ccc(F)cc4)nn23)cc1 | inactive: -41.6% | 
93 | COc1cccc(C2=NS(=O)(=O)N(C)C(C(=O)Nc3ccccc3SC)=C2)c1 | inactive: -7.21% | 
94 | Cc1ccc(C)c(Cn2c(=O)n(Cc3ccccc3)c(=O)c3c2c2cc(C)ccc2n3C)c1 | inactive: 17.3% | 
95 | Cc1ccc(C(=O)Nc2ccc(S(=O)(=O)Nc3onc(C)c3C)cc2)cc1 | inactive: 18.7% | 
96 | CCOC(=O)c1ccc(NC(=O)Cn2c(=O)cc(C(F)(F)F)c3c(C)nn(C)c32)cc1 | inactive: -3.1% | 
97 | Cc1ccc(Cl)cc1N1CCN(CCCNC(=O)C2COc3ccccc3C2)CC1 (stereo not drawn) | inactive: -34.7% | 
98 | Fc1ccc(CSc2nc(NCc3ccccc3)c3ccccc3n2)cc1 | inactive: -24.6% | 
